# Data taken from publication PMC9911399, “Two distinct binding modes provide the RNA-binding protein RbFox with extraordinary sequence specificity”.
# Where a chain is given by its changes, count along the chain named. The list shows a part of the results.
# T1: RBFOX1 RRM RbFoxmut (Fox-RRM*) (Homo sapiens, UniProt Q9NWB1 109-208, R118D;E147R;N151S;E152T)
# T1 sequence: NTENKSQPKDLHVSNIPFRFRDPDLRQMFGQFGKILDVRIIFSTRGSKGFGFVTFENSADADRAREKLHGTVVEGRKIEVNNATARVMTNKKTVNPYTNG
# B1: GUGCGUA (DNA:RNA)
# RNA: GGGAGACCGGAAUUCAGAUUGUCCGUGCGUAUUAAAUCCCGUCGUAGCCACCA
# DNA 1: CAATCTGAATTCCGGTCTCCC
# DNA 2: TGGTGGCTACGACGGGATT
# B2: GAGCGCA (DNA:RNA)
# RNA: B1 RNA with U26A, U30C
# DNA 1: CAATCTGAATTCCGGTCTCCC
# DNA 2: TGGTGGCTACGACGGGATT
# B3: UUACGGA (DNA:RNA)
# RNA: B1 RNA with G25U, G27A, U30G
# DNA 1: CAATCTGAATTCCGGTCTCCC
# DNA 2: TGGTGGCTACGACGGGATT
# B4: AUUACGG (DNA:RNA)
# RNA: B1 RNA with G25A, G27U, C28A, G29C, U30G, A31G
# DNA 1: CAATCTGAATTCCGGTCTCCC
# DNA 2: TGGTGGCTACGACGGGATT
# B5: CAUGCCC (DNA:RNA)
# RNA: GGGAGACCGGAAUUCAGAUUGUCCCAUGCCCUUAAAUCCCGUCGUAGCCACCA
# DNA 1: CAATCTGAATTCCGGTCTCCC
# DNA 2: TGGTGGCTACGACGGGATT
# B6: CGAAGAU (DNA:RNA)
# RNA: B5 RNA with A26G, U27A, G28A, C29G, C30A, C31U
# DNA 1: CAATCTGAATTCCGGTCTCCC
# DNA 2: TGGTGGCTACGACGGGATT
# B7: GAGCUCC (DNA:RNA)
# RNA: B5 RNA with C25G, U27G, G28C, C29U
# DNA 1: CAATCTGAATTCCGGTCTCCC
# DNA 2: TGGTGGCTACGACGGGATT
# B8: AGCUCAC (DNA:RNA)
# RNA: B5 RNA with C25A, A26G, U27C, G28U, C30A
# DNA 1: CAATCTGAATTCCGGTCTCCC
# DNA 2: TGGTGGCTACGACGGGATT
# B9: CGACGAG (DNA:RNA)
# RNA: B1 RNA with G25C, U26G, G27A, U30A, A31G
# DNA 1: CAATCTGAATTCCGGTCTCCC
# DNA 2: TGGTGGCTACGACGGGATT
# B10: CUACCUG (DNA:RNA)
# RNA: B1 RNA with G25C, G27A, G29C, A31G
# DNA 1: CAATCTGAATTCCGGTCTCCC
# DNA 2: TGGTGGCTACGACGGGATT
# B11: UCUCCCG (DNA:RNA)
# RNA: B5 RNA with C25U, A26C, G28C, C31G
# DNA 1: CAATCTGAATTCCGGTCTCCC
# DNA 2: TGGTGGCTACGACGGGATT
# B12: UCAUGCU (DNA:RNA)
# RNA: B5 RNA with C25U, A26C, U27A, G28U, C29G, C31U
# DNA 1: CAATCTGAATTCCGGTCTCCC
# DNA 2: TGGTGGCTACGACGGGATT
# B13: GUAGGCG (DNA:RNA)
# RNA: B1 RNA with G27A, C28G, U30C, A31G
# DNA 1: CAATCTGAATTCCGGTCTCCC
# DNA 2: TGGTGGCTACGACGGGATT
# B14: CCUUCGU (DNA:RNA)
# RNA: B5 RNA with A26C, G28U, C30G, C31U
# DNA 1: CAATCTGAATTCCGGTCTCCC
# DNA 2: TGGTGGCTACGACGGGATT
# B15: UUCCGGG (DNA:RNA)
# RNA: B1 RNA with G25U, G27C, U30G, A31G
# DNA 1: CAATCTGAATTCCGGTCTCCC
# DNA 2: TGGTGGCTACGACGGGATT
# B16: AGCAGGC (DNA:RNA)
# RNA: B5 RNA with C25A, A26G, U27C, G28A, C29G, C30G
# DNA 1: CAATCTGAATTCCGGTCTCCC
# DNA 2: TGGTGGCTACGACGGGATT
# B17: AGCCGGA (DNA:RNA)
# RNA: B1 RNA with G25A, U26G, G27C, U30G
# DNA 1: CAATCTGAATTCCGGTCTCCC
# DNA 2: TGGTGGCTACGACGGGATT
# B18: GGGCAGG (DNA:RNA)
# RNA: B1 RNA with U26G, G29A, U30G, A31G
# DNA 1: CAATCTGAATTCCGGTCTCCC
# DNA 2: TGGTGGCTACGACGGGATT
# B19: CAGUUAU (DNA:RNA)
# RNA: B5 RNA with U27G, G28U, C29U, C30A, C31U
# DNA 1: CAATCTGAATTCCGGTCTCCC
# DNA 2: TGGTGGCTACGACGGGATT
# B20: GUGAUUC (DNA:RNA)
# RNA: B1 RNA with C28A, G29U, A31C
# DNA 1: CAATCTGAATTCCGGTCTCCC
# DNA 2: TGGTGGCTACGACGGGATT
# B21: CCUCAUG (DNA:RNA)
# RNA: B5 RNA with A26C, G28C, C29A, C30U, C31G
# DNA 1: CAATCTGAATTCCGGTCTCCC
# DNA 2: TGGTGGCTACGACGGGATT
# B22: CUACGGG (DNA:RNA)
# RNA: B1 RNA with G25C, G27A, U30G, A31G
# DNA 1: CAATCTGAATTCCGGTCTCCC
# DNA 2: TGGTGGCTACGACGGGATT
# B23: UUUUUGG (DNA:RNA)
# RNA: B5 RNA with C25U, A26U, G28U, C29U, C30G, C31G
# DNA 1: CAATCTGAATTCCGGTCTCCC
# DNA 2: TGGTGGCTACGACGGGATT
# B24: GUGUAGC (DNA:RNA)
# RNA: B1 RNA with C28U, G29A, U30G, A31C
# DNA 1: CAATCTGAATTCCGGTCTCCC
# DNA 2: TGGTGGCTACGACGGGATT
# B25: CAGUAUU (DNA:RNA)
# RNA: B5 RNA with U27G, G28U, C29A, C30U, C31U
# DNA 1: CAATCTGAATTCCGGTCTCCC
# DNA 2: TGGTGGCTACGACGGGATT
# B26: UCAUCGG (DNA:RNA)
# RNA: B5 RNA with C25U, A26C, U27A, G28U, C30G, C31G
# DNA 1: CAATCTGAATTCCGGTCTCCC
# DNA 2: TGGTGGCTACGACGGGATT
# B27: ACGUUGA (DNA:RNA)
# RNA: B1 RNA with G25A, U26C, C28U, G29U, U30G
# DNA 1: CAATCTGAATTCCGGTCTCCC
# DNA 2: TGGTGGCTACGACGGGATT
# B28: GCCGUUA (DNA:RNA)
# RNA: B1 RNA with U26C, G27C, C28G, G29U
# DNA 1: CAATCTGAATTCCGGTCTCCC
# DNA 2: TGGTGGCTACGACGGGATT
# B29: UCAAUAG (DNA:RNA)
# RNA: GGGAGACCGGAAUUCAGAUUGUCCUCAAUAGUUAAAUCCCGUCGUAGCCACCA
# DNA 1: CAATCTGAATTCCGGTCTCCC
# DNA 2: TGGTGGCTACGACGGGATT
# B30: ACGAAGA (DNA:RNA)
# RNA: B1 RNA with G25A, U26C, C28A, G29A, U30G
# DNA 1: CAATCTGAATTCCGGTCTCCC
# DNA 2: TGGTGGCTACGACGGGATT
# B31: CCACCGU (DNA:RNA)
# RNA: B5 RNA with A26C, U27A, G28C, C30G, C31U
# DNA 1: CAATCTGAATTCCGGTCTCCC
# DNA 2: TGGTGGCTACGACGGGATT
# Target: T1, RBFOX1 RRM RbFoxmut (Fox-RRM*)
# Test: EMSA; HiTS-Eq, 1 nM pool, 10 min; buffer printed only for the single-RNA assays: 10 mM Tris pH 7.5, 150 mM NaCl, 3.4 mM EDTA, 0.001% NP-40, 30 C
# Details: tags: His6 N-terminal (pET28a); label: 5' 32P
# Procedure, shortened: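 Purified RbFox RRM (wild type or mutant) was equilibrated for 10 min in 50 µL with 1 nM of a 5′-radiolabelled pool of RNA with 7 randomized nucleotides, its flanks annealed to DNA oligonucleotides, across increasing protein concentrations. Free RNA was separated by 8% native PAGE, excised, reverse-transcribed, PCR-barcoded and sequenced on an Illumina HiSeq 2500. Relative association constants came from read-count changes of each variant against the control reaction, normalised to the cognate motif.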
row,Binder,binding signal
1,B1,0.162 KA relative to UGCAUGU
2,B2,0.145 KA relative to UGCAUGU
3,B3,0.0683 KA relative to UGCAUGU
4,B4,0.0693 KA relative to UGCAUGU
5,B5,0.11 KA relative to UGCAUGU
6,B6,0.088 KA relative to UGCAUGU
7,B7,0.0323 KA relative to UGCAUGU
8,B8,0.0776 KA relative to UGCAUGU
9,B9,0.114 KA relative to UGCAUGU
10,B10,0.0771 KA relative to UGCAUGU
11,B11,0.0736 KA relative to UGCAUGU
12,B12,0.114 KA relative to UGCAUGU
13,B13,0.126 KA relative to UGCAUGU
14,B14,0.0852 KA relative to UGCAUGU
15,B15,0.0707 KA relative to UGCAUGU
16,B16,0.0869 KA relative to UGCAUGU

row,Binder,binding signal
1,B17,0.0626 KA relative to UGCAUGU
2,B18,0.0849 KA relative to UGCAUGU
3,B19,0.133 KA relative to UGCAUGU
4,B20,0.159 KA relative to UGCAUGU
5,B21,0.101 KA relative to UGCAUGU
6,B22,0.061 KA relative to UGCAUGU
7,B23,0.0788 KA relative to UGCAUGU
8,B24,0.134 KA relative to UGCAUGU
9,B25,0.119 KA relative to UGCAUGU
10,B26,0.0932 KA relative to UGCAUGU
11,B27,0.113 KA relative to UGCAUGU
12,B28,0.0968 KA relative to UGCAUGU
13,B29,0.0794 KA relative to UGCAUGU
14,B30,0.105 KA relative to UGCAUGU
15,B31,0.11 KA relative to UGCAUGU
